# Source: the supplement of paper PMC7826260
# The list shows a part of the results. Cleavage of a single-stranded DNA pool by Rep nickase domains was read by sequencing for 1 h at 37 °C with 3 µM enzyme; only the middle of the 90-letter strands is printed. The score is log2 (uncut reads / reads without enzyme); more negative means more cut, near 0 not cut, and no call is made. Shares of all reads are compared; uncut strands gain when others are lost, and binding without cutting may add a little.
# Assays:
# Assay in all cases: uncleaved DNA left, log2 of reads against the no-enzyme library (log2 ratio); higher = less cleavage (more negative = more Rep cleavage of the k-mer); sequences stand for … in CTCGTCCG…ACCGGAGA
# [1] = system: T1, Rep nickase domain of Muscovy duck circovirus
# T1 sequence (residues 1-111, tag not shown): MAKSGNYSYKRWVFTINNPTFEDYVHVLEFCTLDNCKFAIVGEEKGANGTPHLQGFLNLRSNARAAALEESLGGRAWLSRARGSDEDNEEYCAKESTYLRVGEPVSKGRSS
# Method: (§1)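 A pool of 90-nt single-stranded DNAs with seven random bases just before the constant AC of the nick site (name = the seven bases) was cut by 3 µM recombinant His6-SUMO-tagged Rep nickase domain (300 nM DNA, 50 mM HEPES pH 8.0, 50 mM NaCl, 1 mM MnCl2, 1 h, 37 °C, three replicates). Uncut DNA was amplified and sequenced.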
# [2] = system: T2, Rep nickase domain of banana bunchy top virus
# T2 sequence (residues 1-94, tag not shown): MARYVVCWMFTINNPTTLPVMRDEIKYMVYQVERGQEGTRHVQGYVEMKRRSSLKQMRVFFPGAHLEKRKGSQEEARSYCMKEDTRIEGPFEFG
# Method: as §1
# [3] = system: T3, Rep nickase domain of cabbage leaf curl virus
# T3 sequence (residues 1-116, tag not shown): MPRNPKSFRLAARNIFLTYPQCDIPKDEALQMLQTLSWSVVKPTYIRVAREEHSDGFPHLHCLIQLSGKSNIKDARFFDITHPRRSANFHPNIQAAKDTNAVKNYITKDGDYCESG
# Method: as §1
# [4] = system: T4, Rep nickase domain of chickpea chlorotic dwarf virus
# T4 sequence (residues 1-124, tag not shown): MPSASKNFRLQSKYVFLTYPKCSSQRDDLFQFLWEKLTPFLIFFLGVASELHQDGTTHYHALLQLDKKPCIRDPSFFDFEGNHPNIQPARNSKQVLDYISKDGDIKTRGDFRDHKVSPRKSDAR
# Method: as §1
# [5] = system: T5, Rep nickase domain of faba bean necrotic yellows virus
# T5 sequence (residues 1-98, tag not shown): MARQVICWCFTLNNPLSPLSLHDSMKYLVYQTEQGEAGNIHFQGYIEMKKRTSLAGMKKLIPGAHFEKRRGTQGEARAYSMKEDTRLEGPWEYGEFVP
# Method: as §1
# [6] = system: T6, Rep nickase domain of maize striate mosaic virus
# T6 sequence (residues 1-117, tag not shown): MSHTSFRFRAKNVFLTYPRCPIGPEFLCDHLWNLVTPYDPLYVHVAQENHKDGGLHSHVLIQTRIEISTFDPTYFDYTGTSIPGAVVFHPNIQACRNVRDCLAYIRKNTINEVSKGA
# Method: as §1
# [7] = system: T7, Rep nickase domain of porcine circovirus 2
# T7 sequence (residues 2-116, tag not shown): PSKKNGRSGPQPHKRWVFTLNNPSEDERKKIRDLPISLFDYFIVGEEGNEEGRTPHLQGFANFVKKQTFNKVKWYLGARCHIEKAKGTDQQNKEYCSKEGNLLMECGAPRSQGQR
# Method: as §1
# [8] = system: T8, Rep nickase domain of tomato yellow leaf curl virus
# T8 sequence (residues 1-136, tag not shown): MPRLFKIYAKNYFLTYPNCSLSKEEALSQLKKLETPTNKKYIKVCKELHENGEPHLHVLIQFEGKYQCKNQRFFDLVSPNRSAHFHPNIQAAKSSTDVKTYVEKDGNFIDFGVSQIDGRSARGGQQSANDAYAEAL
# Method: as §1
# [9] = system: T9, Rep nickase domain of wheat dwarf virus
# T9 sequence (residues 1-137, tag not shown): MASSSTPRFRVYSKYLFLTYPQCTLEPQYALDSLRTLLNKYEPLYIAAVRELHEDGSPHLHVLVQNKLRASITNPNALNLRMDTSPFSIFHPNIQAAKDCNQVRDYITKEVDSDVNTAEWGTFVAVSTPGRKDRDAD
# Method: as §1
Sequence,uncleaved DNA left (log2) [1],uncleaved DNA left (log2) [2],uncleaved DNA left (log2) [3],uncleaved DNA left (log2) [4],uncleaved DNA left (log2) [5],uncleaved DNA left (log2) [6],uncleaved DNA left (log2) [7],uncleaved DNA left (log2) [8],uncleaved DNA left (log2) [9]
CGACAGA,0.0709,0.0531,0.075,0.701,-0.0602,1.35,0.142,-0.0251,0.226
CTACCTA,-0.0271,-0.0305,-0.167,-2.48,-0.00088,-0.63,-0.985,0.0306,-0.0712
CCATAAC,0.0453,-0.103,-0.4,-1.79,0.0563,-0.973,0.083,0.00359,-0.331
CCCTTTT,-2.78,-0.322,-0.262,-2.48,-0.0703,-0.721,-3.25,-0.0796,-0.233
TCGGAAT,-0.00475,0.0285,0.403,1.41,-0.149,1.58,0.173,-0.0192,0.038
GGAGCAC,0.0427,0.0955,0.879,1.83,-0.00112,2.13,0.264,0.0872,0.231
TCGCCTC,-0.067,-0.0826,0.143,0.156,-0.094,0.368,-0.0262,-0.107,-0.0383
TTAAGAC,0.119,0.00883,-1.88,-2.26,0.0433,-0.308,0.166,-0.0135,-0.268
TAACCAC,-0.122,-0.00268,-0.419,-2.27,0.0263,-0.53,-0.657,-0.0203,-0.178
GGTGAAA,0.0961,0.146,0.617,1.36,0.084,2.09,0.376,0.195,0.225
CATGCAA,-0.14,-0.0645,-0.646,-0.69,-0.0336,-1.27,-0.00698,0.0931,0.0628
GAGAAGC,0.0766,0.00875,0.211,0.611,-0.00856,-0.0848,0.166,0.0554,-0.00469
AAAAGCG,0.108,0.0783,-0.621,0.815,0.192,-0.345,0.204,0.101,0.0259
TGTCCGG,0.0374,0.129,0.547,1.35,0.0523,1.88,0.132,0.0739,0.12
GCAATAA,0.0279,0.116,0.0339,0.385,0.0346,-0.0706,0.099,0.196,0.0641
TTGGATT,0.0513,-0.0822,0.0612,-0.22,-0.0468,1.19,-0.182,-0.0716,-0.124
GGAGGTG,0.135,0.119,0.0679,0.215,0.0743,0.187,0.0762,-0.00556,0.0215
TCGAGGT,0.0901,0.0237,0.303,0.862,0.0024,1.28,-0.0308,-0.138,-0.171
CACGTGT,0.0592,-0.0373,-0.345,-0.787,0.0178,-0.508,-0.0821,-0.0387,-0.162
GTTAGTG,0.0631,-0.0599,-0.262,-0.394,-0.00558,-0.836,0.171,-0.0311,-0.0221

Sequence,uncleaved DNA left (log2) [1],uncleaved DNA left (log2) [2],uncleaved DNA left (log2) [3],uncleaved DNA left (log2) [4],uncleaved DNA left (log2) [5],uncleaved DNA left (log2) [6],uncleaved DNA left (log2) [7],uncleaved DNA left (log2) [8],uncleaved DNA left (log2) [9]
CCGCTCG,-0.15,-0.152,-0.822,-0.282,-0.298,-0.722,-0.0437,-0.301,-0.196
TACCGCC,-0.067,-0.128,-0.224,-1.08,-0.061,-0.947,-0.305,-0.0593,-0.0885
AACGTCC,-0.132,-0.0264,-0.263,-0.522,-0.123,-0.657,-0.217,-0.083,-0.106
CACCAAT,0.0307,-0.103,-0.284,-2.56,-0.158,-0.643,-1.07,0.0703,0.0919
CTAGCGG,0.0161,0.135,0.533,1.53,0.0123,1.78,0.29,-0.0392,0.111
AGACGGG,0.0535,0.0431,-0.114,0.0636,0.0308,-0.415,0.149,0.0856,-0.014
TCCCCAC,0.00116,-0.117,0.104,-0.374,0.125,-0.295,-0.158,0.0713,-0.0202
CGTAGAC,-0.112,-0.151,0.15,0.419,-0.115,0.208,-0.0407,-0.159,-0.0289
GTCACGA,0.0101,0.0378,0.312,0.737,-0.0158,0.798,0.157,0.00583,0.00783
TCAAAGA,0.0729,-0.0525,-0.0318,-0.0366,-0.0436,-0.894,0.0784,-0.12,-0.047
ACATGTC,0.0388,-0.0526,-0.391,-0.426,0.0423,-0.985,0.0658,-0.0772,-0.0933
GACCGTA,0.0745,-0.0133,0.0859,-0.000293,0.00575,0.307,0.0428,-0.0576,0.00148
AATAACC,-0.11,-0.0448,-0.598,-1.82,-0.0101,-0.867,-0.55,-0.0445,0.0287
GAGGACC,0.0322,0.109,0.717,1.78,-0.0615,1.94,0.217,0.05,0.189
GCTACGC,-0.0254,0.0167,-0.022,-0.0663,-0.0696,-0.379,0.0933,0.0533,-0.0929
GTAGGTC,0.199,0.151,0.577,1.03,-0.00288,1.68,0.071,0.191,0.225
TGGCCCG,-0.084,-0.0872,-0.748,-0.102,-0.0155,-0.645,0.0479,-0.0938,-0.0449
CGCGAGG,0.0269,0.0341,0.0605,0.715,-0.0729,1.22,0.125,-0.0007,0.00788
TTGGGCC,-0.0271,0.038,0.484,0.677,0.047,0.484,0.133,0.21,0.14
TCGGTCA,-0.0309,-0.135,0.402,0.908,-0.105,1.01,-0.152,-0.0348,-0.0854

Sequence,uncleaved DNA left (log2) [1],uncleaved DNA left (log2) [2],uncleaved DNA left (log2) [3],uncleaved DNA left (log2) [4],uncleaved DNA left (log2) [5],uncleaved DNA left (log2) [6],uncleaved DNA left (log2) [7],uncleaved DNA left (log2) [8],uncleaved DNA left (log2) [9]
AGTAGGA,0.0128,-0.0582,0.0874,0.383,0.0121,-0.293,0.119,-0.0522,-0.0737
TGGGCCG,0.0237,-0.0247,-0.473,0.167,-0.00492,-0.455,0.0649,-0.0451,-0.14
CGGCGGG,0.0414,-0.0606,-0.039,0.154,0.129,0.342,0.222,-0.138,-0.0345
CAATCAG,0.0427,-0.029,-0.767,-0.229,0.117,-1.06,0.207,0.0415,-0.0786
CATTACG,0.0178,0.111,-0.537,0.861,0.0441,0.137,0.223,0.263,0.0416
AAGGGTC,0.0465,0.123,0.264,1.36,0.0501,1.16,0.143,-0.0309,0.0816
ATATTTT,-3.44,-0.386,-2.76,-3.21,-0.0242,-1.11,-3.88,-0.155,-0.682
AGTCTGG,0.0519,-0.0345,-0.0363,0.245,-0.0394,-0.0607,-0.0242,-0.103,-0.0232
GCTGCTG,-0.142,-0.0618,0.12,0.801,-0.0886,0.91,0.0989,-0.113,-0.128
ATCACGT,0.00774,-0.0442,-0.172,-0.504,-0.072,-0.827,0.0496,-0.0724,-0.0864
CACATAA,0.0778,0.0132,-0.173,-0.654,0.0453,-0.981,0.121,-0.063,0.0937
ATTGAGG,0.163,0.171,0.377,1.04,0.0743,0.513,0.282,0.156,0.147
GAACGAC,-0.0655,0.0534,0.281,0.612,0.0302,0.642,0.181,-0.0207,0.0578
TTCCCGG,0.095,0.164,0.556,1.46,-0.0185,2.01,0.138,0.0429,0.135
CAAAGAT,0.0696,0.0159,-0.207,-0.801,0.12,0.947,0.149,0.0313,0.0182
ATTGAGT,0.0267,-0.033,-0.63,-0.686,0.124,-1.04,-0.0678,0.045,-0.157
GTCCTAA,0.0244,0.218,0.302,1.04,-0.0101,1.78,0.0124,0.06,0.0378
AAAACCA,-0.0892,-0.0575,-0.213,-2.5,-0.023,-0.504,-0.464,-0.0727,-0.0479
GAAATCT,0.101,0.141,-1.14,-2.41,0.0392,0.587,-0.638,0.015,-0.254
TACTCTA,-0.779,-0.13,-0.282,-2.69,-0.0645,-0.413,-2.78,0.02,-0.102
